# Source: the supplement of paper PMC10338343
# ± gives the standard deviation. The entries are a selection whose mix differs from that of the whole data set.
# Test system: MIWI (PIWIL1) piRISC loaded with L1MC piRNA (30 nt)
# Assay: pre-steady-state target cleavage rate (min^-1); MIWI and MILI are mouse PIWI proteins and EfPiwi is from a freshwater sponge; tags in brackets are library labels; higher = faster piRNA-guided slicing of the target
# Conditions: guide: L1MC piRNA 5'p-UAACUAAAUACUAUGCAAGCUGUAGGUCCU
# Outline: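 Cleave-'n-Seq reactions paired 0.1 nM transcribed, DNA-blocked target RNA library with 1 nM active affinity-purified piRISC holding one synthetic guide, plus or minus 500 nM GTSF1 partner protein, in HEPES–potassium acetate buffer at 33 °C for 0–8 or 0–960 min. After sequencing of uncleaved targets and normalisation to depth and weakly complementary targets, the pre-steady-state cleavage rate was taken from a burst-and-steady-state fit. Three trials were pooled, and k3 was capped at 0.0001 min^-1.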
# [1] = auxiliary factor: 500 nM mouse GTSF1
# [2] = auxiliary factor: none (no GTSF1)
Sequence,pre-steady-state target cleavage rate [1],pre-steady-state target cleavage rate [2]
AGGACCUACAGCUUGCAAAGUAUUUACAAA,0.321 ± 0.041,0.00586 ± 0.0026
UGGACCUACAGCUUGCAUAGUUUUUAGAUA,0.118 ± 0.013,0.0104 ± 0.0032
UCCUACUACAGCUUGCAUAGUAUUUAGUUA,0.886 ± 0.036,0.057 ± 0.0085
UCCUGGAACAGCUUGCAAAGUAUUUUGUUA,0.471 ± 0.05,0.0188 ± 0.0066
AGGAGCUACAGCUUGCAUAGUUUUUAGUUA,0.407 ± 0.023,0.0391 ± 0.0094
AGGACCUACAGCUUGCAUAGUAAUUUGUUA,0.524 ± 0.055,0.0327 ± 0.01
UGGACCUACAGCUUGGAUAGUAUUUAGAUA,0.427 ± 0.05,0.0235 ± 0.0046
UGGAGCUACAGCUUGCAUAGUAAUUAGUUA,0.857 ± 0.043,0.0297 ± 0.0065
UCGACCUACUGCUUGCAUAGUAUUAAGUUA,0.588 ± 0.028,0.0292 ± 0.0051
UCCUGCUUCAGCUUGCAUAGUAUUUAGUUA,1.19 ± 0.051,0.0684 ± 0.012
AGGACCUACAGCUUGCAUAGUAUUUUCUUA,0.33 ± 0.049,0.03 ± 0.0093
UCGACCUACAGCAUGCAUAGUAUUAAGUUA,0.964 ± 0.058,0.0103 ± 0.0026
UCCUGGUACAGUCUUGCAUAGUAUUUAGUUA,0.43 ± 0.048,0.0202 ± 0.0051
UGGACCUACAGCUUGCAUAGUAUUGUAGUUA,0.541 ± 0.041,0.0341 ± 0.007
UCGACCUACAGCUUGCAUAGUUUUUAGAAA,0.287 ± 0.035,0.00673 ± 0.0029
UCCUGGAACAGCUUGCAUAGUAUAUUAGUUA,0.819 ± 0.053,0.0111 ± 0.0036
UCGACCUACAGCAUGCAUAGUAUAUAGUUA,0.982 ± 0.062,0.016 ± 0.0035
UCCACCUAGAGCUUGCAUAGUAUAUAGUUA,0.658 ± 0.069,0.0203 ± 0.0052
UCCUGGAACAGCUUGCAUAGUUUUUAGUAA,0.191 ± 0.025,0.0332 ± 0.01
AGGACCUACAGCUUGCAUAGUAUUUAGUCUA,0.231 ± 0.041,0.0266 ± 0.0083

Sequence,pre-steady-state target cleavage rate [1],pre-steady-state target cleavage rate [2]
UCCUGGUAGAGGUUGCAUAGUAUUUAGUUA,0.24 ± 0.033,0.00375 ± 0.0022
UCGACCUAUAGCUUGCAUAGUAUUUAGUUA,1.04 ± 0.055,0.0703 ± 0.014
UCCUGGUACAGCUUGCAUACUAUUUAGUUA,0.269 ± 0.041,0.0196 ± 0.0042
UGGAGCUACAGCUUGCAUUGUAUUUAGUUA,0.934 ± 0.038,0.0337 ± 0.0068
AGGACCUACAGGAAGCAUAGUAUUUAGUUA,0.977 ± 0.08,0.0104 ± 0.0029
UCCACGUACAGCUUGCAUAGUUUUUAGUUA,0.427 ± 0.021,0.0381 ± 0.0084
UCCUCCUACAGCGUGCAUAGUAUUUAGUUA,1.4 ± 0.042,0.0379 ± 0.0072
UCCUCCUACUGCUUGCAUAGUAUUUAGAUA,0.185 ± 0.024,0.0115 ± 0.002
UCCUGGAUCUGCUUGCAUAGUAAUUAGUUA,0.244 ± 0.03,0.0095 ± 0.0034
UCCUGGAACAGCUUGCAUAGUAUUUAGUGA,0.632 ± 0.043,0.0403 ± 0.0086
UCCUGGUACAGCUUUCAUAGUAUUUAGUUA,0.379 ± 0.06,0.0149 ± 0.0031
UCCUGGAUCUGCUUGCAUAGUUUUUAGUUA,0.103 ± 0.015,0.0152 ± 0.0032
UCCUGGAUGUCGUUGCAUAGUGUUUAGUUA,0.00752 ± 0.0034,0.00364 ± 0.0032
UCCUGGAACAGCUUGCAUAGUAAUUACUUA,0.141 ± 0.025,0.00891 ± 0.0019
UCCUGGUACAGCUAGCAUAGAAUUUAGUUA,0.489 ± 0.071,0.00648 ± 0.0025
UCCUGGUACACCUUGGAUAGUAUUUAGUUA,0.553 ± 0.18,0.00815 ± 0.0041
AGGACCUACAGCUUGCAUAGUGUUUAGUUA,1.05 ± 0.067,0.0729 ± 0.015
UCGACCAACAGCUUGCAUAGUAUUUAGUAA,1.2 ± 0.065,0.0413 ± 0.0084
UGGACCUACAGCUUGCAUACUAUUUUGUUA,0.145 ± 0.014,0.0155 ± 0.0039
UCCUGGAUGUGCUUGCAUAGUAUUUAGUGUA,0.202 ± 0.019,0.0278 ± 0.0068

Sequence,pre-steady-state target cleavage rate [1],pre-steady-state target cleavage rate [2]
UCCUGGAACAGCUUGCAUAGAAUUUACUUA,0.0935 ± 0.025,0.00665 ± 0.0022
UCCACCUACAGCUUGCAUACUAUUUUGUUA,0.158 ± 0.019,0.0123 ± 0.002
UCCUGGAUGAGCUUGCAUAGUAUUUAGUUG [g2:g21:cont:t1G],0.624 ± 0.056,0.0413 ± 0.0092
UCCUGGAACAGCUUGCAUAGUAUUAAGAUA,0.189 ± 0.028,0.00498 ± 0.0025
UCCUGCUACAGCUUCCAUAGUAUUUAGUUA,0.0769 ± 0.02,0.00307 ± 0.0026
AGGACCUAAAGCUUGCAUAGUAUUUAGUUA,0.673 ± 0.05,0.0594 ± 0.0091
UCCUCCAACACCUUGCAUAGUAUUUAGUUA,0.699 ± 0.053,0.0263 ± 0.0048
UCCUGGUACAGCUUGCAUUGUAUUUAGAUA,0.0655 ± 0.017,0.00831 ± 0.0026
UCCUGGUUGAGCUUGCAUAGUAUUUAGAAA,0.135 ± 0.024,0.00555 ± 0.0033
UCCUCCUACAGCAUGCAUAGUUUUUAGUUA,0.332 ± 0.024,0.0106 ± 0.0017
UCCUGGAACAGCUAGCAUAGUAUUAAGUUA,0.599 ± 0.054,0.00625 ± 0.0028
UCCUGGUUCAGCUAGCAUAGUAUUUAGUUA,0.872 ± 0.045,0.0169 ± 0.004
UCCUGGAACAGCUUGGAUAGUAUUUACUUA,0.0518 ± 0.0087,0.0182 ± 0.0036
AGGACCAACAGCUUCCAUAGUAUUUAGUUA,0.0962 ± 0.019,0.00538 ± 0.0017
UCCUGGAUCAGCUUGCAUAGUAUUAUCUUA,0.0996 ± 0.019,0.00511 ± 0.0021
UCGACCUUCAGCUUGCAUAGUAUUUAGAUA,0.481 ± 0.038,0.0266 ± 0.006
UGGACCUACAGUUUGCAUAGUAUUUAGUUA,1.5 ± 0.088,0.0675 ± 0.013
UCCAGCUACAGCUAGCAUAGUAUUUAGUUA,0.714 ± 0.041,0.0136 ± 0.0023
AGGACCUACAGCUUGCAUAGAAUUUAGAUA,0.361 ± 0.046,0.0108 ± 0.0045
UCCUCCUACACGUUGCAUAGUAUUUAGUUA,1.23 ± 0.042,0.0129 ± 0.0021
